A lower IC50 marks a more sensitive line; a limit (>, <) means that the fit lies beyond the doses tested. AUC sums up the same curve from the lowest dose to the 256-fold higher top dose; it is 1 without any effect and falls as sensitivity rises.
Each cell line was assayed with CC[C@H](Nc1ncnc2[nH]cnc12)c1nc2cccc(F)c2c(=O)n1-c1ccccc1 [CAL-101] (assay: Viability of human cancer cell lines after 72 h of drug (GDSC screen)).
Protocol: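 Human cancer cell lines in 384-well plates, medium with 10% serum, drug for 72 h over a 256-fold dose range (nine 2-fold or five 4-fold steps up to the top dose). Adherent lines were fixed and stained with the nucleic acid dye Syto60, suspension lines read with resazurin; signal relative to control wells, capped at 0 and 100%. One two-parameter sigmoid per drug and line, fitted in a mixed model over all curves with the slope shared within a line.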
Cell Line “LB1047-RCC (kidney, adherent, top dose 20 µM)” has an AUC of 0.959 and an IC50 greater than 20 µM. With “LB2241-RCC (kidney, adherent, top dose 20 µM)” the AUC was 0.982 and the IC50 was greater than 20 µM. Cell Line “LB2518-MEL (melanoma, adherent, top dose 20 µM)” has an AUC of 0.975 and an IC50 greater than 20 µM. In the case of “LC4-1 (lymphoblastic leukaemia, suspension, top dose 20 µM)”, the AUC is reported as 0.706 and the IC50 is reported as 5.1 µM. With “LC-1-sq (lung squamous cell carcinoma, adherent, top dose 20 µM)” the AUC was 0.944 and the IC50 was greater than 20 µM. Cell Line “LC-2-ad (lung adenocarcinoma, adherent, top dose 20 µM)” has an AUC of 0.928 and an IC50 greater than 20 µM. For “LCLC-97TM1 (large cell lung carcinoma, adherent, top dose 20 µM)”, the AUC was 0.914 and the IC50 was greater than 20 µM. “LCLC-103H (large cell lung carcinoma, adherent, top dose 20 µM)” was tested, and the AUC was 0.941 and the IC50 was greater than 20 µM. With “LK-2 (lung squamous cell carcinoma, adherent, top dose 20 µM)” the AUC was 0.986 and the IC50 was greater than 20 µM. “LN-18 (glioma, adherent, top dose 20 µM)” showed an AUC of 0.994 and an IC50 greater than 20 µM. “LN-405 (glioma, adherent, top dose 20 µM)” gave an AUC of 0.922 and an IC50 greater than 20 µM. For “LNCaP-Clone-FGC (prostate, adherent, top dose 20 µM)”, the AUC was 0.708 and the IC50 was 5.3 µM. “LNZTA3WT4 (glioma, adherent, top dose 20 µM)” showed an AUC of 0.975 and an IC50 greater than 20 µM. In the case of “LOU-NH91 (lung squamous cell carcinoma, adherent, top dose 20 µM)”, the AUC is reported as 0.976 and the IC50 is reported as greater than 20 µM. With “LOXIMVI (melanoma, semi-adherent, top dose 20 µM)” the AUC was 0.986 and the IC50 was greater than 20 µM. In the case of “LP-1 (myeloma, suspension, top dose 20 µM)”, the AUC is reported as 0.948 and the IC50 is reported as greater than 20 µM. In the case of “LS-123 (large intestine, adherent, top dose 20 µM)”, the AUC is reported as 0.871 and the IC50 is reported as greater than 20 µM. “LS-180 (large intestine, adherent, top dose 20 µM)” was tested, and the AUC was 0.973 and the IC50 was greater than 20 µM. Work on “LS-411N (large intestine, adherent, top dose 20 µM)” yielded an AUC of 0.951 and an IC50 greater than 20 µM. Work on “LS-513 (large intestine, adherent, top dose 20 µM)” yielded an AUC of 0.954 and an IC50 greater than 20 µM. “LS-1034 (large intestine, adherent, top dose 20 µM)” showed an AUC of 0.962 and an IC50 greater than 20 µM. “LU-65 (large cell lung carcinoma, suspension, top dose 20 µM)” gave an AUC of 0.955 and an IC50 greater than 20 µM. In the case of “LU-99A (large cell lung carcinoma, adherent, top dose 20 µM)”, the AUC is reported as 0.98 and the IC50 is reported as greater than 20 µM. “LU-134-A (small cell lung carcinoma, suspension, top dose 20 µM)” showed an AUC of 0.978 and an IC50 greater than 20 µM. “LU-135 (small cell lung carcinoma, suspension, top dose 20 µM)” was tested, and the AUC was 0.989 and the IC50 was greater than 20 µM. “LU-139 (small cell lung carcinoma, suspension, top dose 20 µM)” showed an AUC of 0.977 and an IC50 greater than 20 µM. With “LU-165 (small cell lung carcinoma, suspension, top dose 20 µM)” the AUC was 0.97 and the IC50 was greater than 20 µM. Cell Line “LXF-289 (lung adenocarcinoma, adherent, top dose 20 µM)” has an AUC of 0.961 and an IC50 greater than 20 µM. With “LoVo (large intestine, adherent, top dose 20 µM)” the AUC was 0.987 and the IC50 was greater than 20 µM. In the case of “M14 (melanoma, adherent, top dose 20 µM)”, the AUC is reported as 0.986 and the IC50 is reported as greater than 20 µM. With “M059J (glioma, adherent, top dose 20 µM)” the AUC was 0.957 and the IC50 was greater than 20 µM. With “MC116 (B-cell lymphoma, suspension, top dose 20 µM)” the AUC was 0.98 and the IC50 was greater than 20 µM. With “MC-CAR (haematopoietic neoplasm, suspension, top dose 20 µM)” the AUC was 0.684 and the IC50 was 3.83 µM. “MC-IXC (neuroblastoma, adherent, top dose 20 µM)” showed an AUC of 0.995 and an IC50 greater than 20 µM. Cell Line MCF7 (breast, adherent, top dose 20 µM) has an AUC of 0.986 and an IC50 greater than 20 µM. Work on “MDA-MB-157 (breast, adherent, top dose 20 µM)” yielded an AUC of 0.984 and an IC50 greater than 20 µM. In the case of “MDA-MB-175-VII (breast, adherent, top dose 20 µM)”, the AUC is reported as 0.968 and the IC50 is reported as greater than 20 µM. “MDA-MB-231 (breast, adherent, top dose 20 µM)” was tested, and the AUC was 0.978 and the IC50 was greater than 20 µM. Cell Line “MDA-MB-330 (breast, adherent, top dose 20 µM)” has an AUC of 0.982 and an IC50 greater than 20 µM. “MDA-MB-361 (breast, adherent, top dose 20 µM)” gave an AUC of 0.978 and an IC50 greater than 20 µM. Work on “MDA-MB-415 (breast, adherent, top dose 20 µM)” yielded an AUC of 0.929 and an IC50 greater than 20 µM. For “MDA-MB-436 (breast, adherent, top dose 20 µM)”, the AUC was 0.974 and the IC50 was greater than 20 µM. With “MDA-MB-453 (breast, adherent, top dose 20 µM)” the AUC was 0.959 and the IC50 was greater than 20 µM. In the case of “MDA-MB-468 (breast, adherent, top dose 20 µM)”, the AUC is reported as 0.86 and the IC50 is reported as 15.8 µM. In the case of “MDST8 (large intestine, adherent, top dose 20 µM)”, the AUC is reported as 0.941 and the IC50 is reported as greater than 20 µM. “ME-1 (acute myeloid leukaemia, suspension, top dose 20 µM)” showed an AUC of 0.976 and an IC50 greater than 20 µM. “ME-180 (cervix, adherent, top dose 20 µM)” showed an AUC of 0.959 and an IC50 greater than 20 µM. In the case of “MEG-01 (chronic myeloid leukaemia, suspension, top dose 20 µM)”, the AUC is reported as 0.969 and the IC50 is reported as greater than 20 µM. With “MEL-JUSO (melanoma, adherent, top dose 20 µM)” the AUC was 0.959 and the IC50 was greater than 20 µM. For “MES-SA (uterus, adherent, top dose 20 µM)”, the AUC was 0.978 and the IC50 was greater than 20 µM. In the case of “MFE-280 (endometrium, adherent, top dose 20 µM)”, the AUC is reported as 0.886 and the IC50 is reported as greater than 20 µM. “MFE-296 (endometrium, adherent, top dose 20 µM)” showed an AUC of 0.979 and an IC50 greater than 20 µM. In the case of “MFE-319 (endometrium, adherent, top dose 20 µM)”, the AUC is reported as 0.968 and the IC50 is reported as greater than 20 µM. In the case of “MFH-ino (soft tissue, adherent, top dose 20 µM)”, the AUC is reported as 0.978 and the IC50 is reported as greater than 20 µM. Work on “MFM-223 (breast, adherent, top dose 20 µM)” yielded an AUC of 0.981 and an IC50 greater than 20 µM. “MG-63 (osteosarcoma, adherent, top dose 20 µM)” showed an AUC of 0.984 and an IC50 greater than 20 µM. In the case of “MHH-ES-1 (Ewing sarcoma, adherent, top dose 20 µM)”, the AUC is reported as 0.904 and the IC50 is reported as greater than 20 µM. “MHH-NB-11 (neuroblastoma, adherent, top dose 20 µM)” showed an AUC of 0.95 and an IC50 greater than 20 µM. With “MHH-PREB-1 (B-cell leukaemia, suspension, top dose 20 µM)” the AUC was 0.978 and the IC50 was greater than 20 µM.
